Reference: PubChem BioAssay AID485281 (National Center for Advancing Translational Sciences (NCATS), 2010)
The whole screen tested about 350,000 compounds, of which about 260 (0.074%) were called active. Inconclusive results, whose numbers are uncertain, are shown with a selection of clear calls. Calls follow the shape of the dose curve; as a rule, active = well fitted inhibition curve with a large enough effect; inconclusive = small, poorly fitted or top-dose-only effect; inactive = no such curve, though single readings can be large or run the other way. Potencies beside an inconclusive call are fits to weak or partial responses and may not hold up.

Each compound was assayed against Ferritin light chain (Equus caballus) (UniProt P02791) (assay: qHTS Assay for Identification of Novel General Anesthetics). Settings: apoferritin/1-aminoanthracene competitive binding, fluorescence; activity change, negative = displacement: at 77.5 µM (top of the series).
How it was run: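 Apoferritin-based anesthetic binding model; compound displacement of fluorescent 1-AMA measured as endpoint fluorescence after 10 minutes at room temperature, scaled to free-ligand and complex controls.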
% is scaled to controls: 0 for no effect and ±100 for the full control effect; potency is read from the fitted curve at half-maximal effect; tags tell the direction and shape of the fitted curve.
Also: nearly all actives have a fitted effect of over 20% in size.

Sequence of UniProt P02791 (P02791 whole entry, looked up): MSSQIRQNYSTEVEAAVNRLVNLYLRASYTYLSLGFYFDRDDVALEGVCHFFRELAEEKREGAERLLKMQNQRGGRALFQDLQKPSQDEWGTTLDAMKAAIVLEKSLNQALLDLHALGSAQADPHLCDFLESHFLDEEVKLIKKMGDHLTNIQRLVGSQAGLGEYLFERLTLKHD

Potency, inconclusive:
COc1cc(Br)cc(C2C3=C(CCCC3=O)N(c3ccc(F)cc3)C3=C2C(=O)CCC3)c1O 3.16 µM [inhibitor, full curve, poor fit]
O=C(CSC1=Nc2ccccc2N=C(c2ccc(F)cc2)C1)Nc1ccccc1 3.98 µM [inhibitor, single point]
COc1ccccc1CNC(=O)c1cn(C)c2ccc(S(=O)(=O)N(C)C3CCCCC3)cc2c1=O 14.1 µM [inhibitor, partial curve, poor fit]
Cc1cc(C)cc(C(=O)NCC(=O)OCC(=O)Nc2ccc(C)cc2Br)c1 28.2 µM [inhibitor, partial curve]
Cc1cc(NC(=O)CN2C(=O)c3cccnc3Sc3ccccc32)ccc1Br 25.1 µM [inhibitor, partial curve]
O=[N+]([O-])c1ccc(N2CCN(Cc3ccc([N+](=O)[O-])o3)CC2)cc1 28.2 µM [inhibitor, partial curve]
Cc1ccccc1NC(=O)CCC(=O)OCCCC(F)(F)C(F)(F)F 39.8 µM [inhibitor, partial curve, poor fit]
CCCCCn1c(=O)[nH]c2cc(C(=O)N3CCN(c4cccc(C(F)(F)F)c4)CC3)ccc2c1=O 15.8 µM [inhibitor, partial curve]
Oc1ccc2ccccc2c1Br 39.8 µM [inhibitor, single point]
CCOC(=O)/C(C#N)=C/c1cc2ccccc2nc1Cl 50.1 µM [inhibitor, single point]
O=C1c2ccccc2C(=O)N1CCCCSc1nc2ccccc2o1 50.1 µM [inhibitor, partial curve, poor fit]
CSc1ccc(/C=N/NC(=O)CNc2cccc3ccccc23)cc1 7.08 µM [inhibitor, full curve, poor fit]
N#Cc1c(-c2ccccc2)nc(SCc2ccc([N+](=O)[O-])cc2)[nH]c1=O 28.2 µM [inhibitor, partial curve]
CCN(C(=O)c1cc2c(=O)oc3ccc(C)cc3c2s1)c1ccccc1C 3.98 µM [inhibitor, partial curve]
Cc1cccc(CCN(CC(=O)NC2CCCCC2)C(=O)c2csnn2)c1 11.2 µM [inhibitor, partial curve]
CCOc1ccc(/C=C/[N+](=O)[O-])c2ccccc12 35.5 µM [inhibitor, partial curve]
Cc1ccc(C(=O)c2cn(Cc3ccc(Cl)cc3)c3nc(C)ccc3c2=O)cc1 12.6 µM [inhibitor, partial curve]
Cc1ccc(C2CC(=O)NC(SCCC(C)C)=C2C#N)cc1 (centres undefined) 44.7 µM [inhibitor, partial curve, poor fit]
O=C1CN(c2nc(-c3cccnc3)nc3scc(-c4ccccc4)c23)CCN1 25.1 µM [inhibitor, partial curve]
COc1ccc(-n2c(N3CCN(C)CC3)nc3sc4c(c3c2=O)CCCCC4)cc1 50.1 µM [inhibitor, partial curve]
CC(C)(C)CC(=O)NC(=S)NCCc1ccccc1 35.5 µM [inhibitor, partial curve]
Cc1onc(-c2ccccc2Cl)c1C(=O)OCC(=O)c1ccccc1 35.5 µM [inhibitor, partial curve]
Cc1c(N=Cc2ccc(Cl)o2)c(=O)n(-c2ccccc2)n1C 35.5 µM [inhibitor, partial curve]
O=C(O)c1cc([N+](=O)[O-])ccc1NCc1ccccc1Cl 22.4 µM [inhibitor, partial curve]
CCOC(=O)c1c(N2C(=O)C3C4C=CC(O4)C3C2=O)sc2c1CCCC2 (centres undefined) 50.1 µM [inhibitor, single point]
CCN1/C(=C2/SC(=S)N(NC(C)=O)C2=O)Sc2ccc(Cl)cc21 15.8 µM [inhibitor, partial curve]
O=C(NC1CCCc2ccccc21)C1CCC(CNS(=O)(=O)c2cccc3nsnc23)CC1 (centres undefined) 3.55 µM [inhibitor, partial curve]
COc1cc(CCN2C(=O)N[C@@H](c3cccc(C(F)(F)F)c3)C(C(C)=O)=C2C)cc(OC)c1OC 31.6 µM [inhibitor, partial curve]
CCOC(=O)Cc1csc(NC(=O)CSc2ncnc3c2cnn3-c2ccccc2Cl)n1 15.8 µM [inhibitor, partial curve]
O=C(Nc1cccc(-c2nc3ncccc3o2)c1)c1ccccc1 31.6 µM [inhibitor, partial curve]
CN(C)CCNc1oc(-c2ccc(COc3ccc(Cl)cc3)o2)nc1C#N 31.6 µM [inhibitor, single point]
C=C(C)CSc1nnc(-c2ccc(C)cc2)n1N 31.6 µM [inhibitor, single point]
CC(C)(C)CC(=O)NC(=S)Nc1ccccc1[N+](=O)[O-] 12.6 µM [inhibitor, partial curve]
COc1ccccc1CC(=O)Nc1ccc2c(c1)CCC2 14.1 µM [inhibitor, partial curve]
CCc1ccc(C(=O)c2cn(Cc3ccc(F)cc3)c3cc(OC)c(OC)cc3c2=O)cc1 25.1 µM [inhibitor, partial curve]
O=S(=O)(NCC1OCCc2ccccc21)c1ccc(S(=O)(=O)N2CCOCC2)cc1 (centres undefined) 28.2 µM [inhibitor, partial curve]
COc1cc(/C=N/N=C(N)N)ccc1OCc1ccccc1Cl 25.1 µM [inhibitor, partial curve]
Cc1ccc(CN2CCC(c3nc4ccc(Cl)cc4[nH]3)CC2)cc1 31.6 µM [inhibitor, partial curve]
O=C(CC1Sc2ccccc2NC1=O)OC(C(=O)NCCc1ccccc1)c1cccnc1 (centres undefined) 25.1 µM [inhibitor, partial curve]
COc1ccc(N2CCN(Cc3nc(N)nc(Nc4ccc(C)c(Cl)c4)n3)CC2)cc1 20 µM [inhibitor, partial curve]
COc1ccc(/C=C/C(=O)NC(=S)NN2CCCCC2c2cccnc2)cc1 (centres undefined) 15.8 µM [inhibitor, partial curve]
CCN(CC(=O)Nc1ccc(NC(C)=O)cc1)C(=O)c1c(-c2c(F)cccc2Cl)noc1C 14.1 µM [inhibitor, partial curve]
CCN1CCc2c(sc(NC(=O)c3ccc(S(=O)(=O)N(C)c4ccccc4)cc3)c2C(=O)NC)C1 15.8 µM [inhibitor, partial curve]
CCOc1ccccc1N/C(=C(/C(Cl)=C(Cl)Cl)[N+](=O)[O-])n1cncn1 44.7 µM [inhibitor, partial curve]
COc1ccc(Cc2nnc(NC(=O)c3ccc(OC)c(OC)c3)s2)cc1OC 31.6 µM [inhibitor, single point]
CC(C(=O)N1CCN(c2ccccc2F)CC1)c1ccc([N+](=O)[O-])cc1 (centres undefined) 0.794 µM [inhibitor, full curve, poor fit]
COc1cc(Cl)c(C)cc1NC(=O)C1CCN(c2nc3ccccc3n3cccc23)CC1 20 µM [inhibitor, partial curve]
COc1ccc(OC)c(NS(=O)(=O)c2ccc3c(c2)C(C)(C)C(=O)N3C)c1 28.2 µM [inhibitor, partial curve]
CCN(c1ccccc1)S(=O)(=O)c1c[nH]c2ccc([N+](=O)[O-])cc12 50.1 µM [inhibitor, single point]

Activity change, negative = displacement, inactive:
CCn1c(SCc2nc(-c3ccc(OC)c(OC)c3)no2)nnc1-c1cccs1 -11.5%
Cc1cc(C)cc(NC(=O)Cn2cc(C(=O)C3CCCCC3)c3ccccc32)c1 -8.79%
CCN(CC)S(=O)(=O)c1ccc(NC(=O)c2ccc(Sc3nncn3C)c([N+](=O)[O-])c2)cc1 -16.5%
COc1ccc(NC(=O)CN2CCN(Cc3ccccc3)CC2)cc1 4.41%
CCN(c1ccccc1)S(=O)(=O)c1nnc(NC(=O)COc2cccc(C)c2)s1 -8.47%
CC1CN(CCCCOc2ccc(Cl)c3ccccc23)CC(C)O1 (centres undefined) -4.35%
CCOc1ccc(NC(=O)C2CC(=O)N(c3ccccc3F)C2)cc1 (centres undefined) 0.882%
COc1ccc(CCn2c3c(c(=O)[nH]c2=O)C(NC(=O)c2ccc(C(C)(C)C)cc2)(C(F)(F)F)C(=O)N3)cc1OC (centres undefined) 0.141%
O=C(CSc1ccccc1)Nc1ccc(N2CCOCC2)c(F)c1 -6.48%
COc1ccccc1OCc1nc(C#N)c(NCCCn2ccnc2)o1 -6.48%
O=C(Nc1sc2c(c1C(=O)O)CCCC2)c1ccc(Cl)cc1 -12%
C=CCc1cc(Cl)ccc1OCCOCCNCCOC -1.1%
Cc1ccc(C)c(N2CCN(C(=O)CCS(=O)(=O)c3ccc4c(c3)NC(=O)CO4)CC2)c1 -22.7%
O=C(NC1CCCCC1)N(CCN1CCCC1)Cc1cc2cc3c(cc2[nH]c1=O)OCCO3 -5.09%
CC(C)(C)n1ncc2c(=O)n(CC(=O)c3ccccc3)cnc21 -6.82%
